From PubChem BioAssay AID624417 (National Center for Advancing Translational Sciences (NCATS), 2012)
In all, about 410,000 compounds went through this assay and about 6,400 (1.6%) were called active. This list was built around the results that the source calls inconclusive (neither active nor inactive); the mix of calls is not that of the screen. Calls follow the shape of the dose curve; as a rule, active = well fitted inhibition curve with a large enough effect; inconclusive = small, poorly fitted or top-dose-only effect; inactive = no such curve, though single readings can be large or run the other way. Potencies of inconclusive entries are left out as doubtful fits.

Target: Glucagon-like peptide 1 receptor (Homo sapiens) (UniProt P43220)
Sequence of UniProt P43220 (P43220 whole entry, looked up): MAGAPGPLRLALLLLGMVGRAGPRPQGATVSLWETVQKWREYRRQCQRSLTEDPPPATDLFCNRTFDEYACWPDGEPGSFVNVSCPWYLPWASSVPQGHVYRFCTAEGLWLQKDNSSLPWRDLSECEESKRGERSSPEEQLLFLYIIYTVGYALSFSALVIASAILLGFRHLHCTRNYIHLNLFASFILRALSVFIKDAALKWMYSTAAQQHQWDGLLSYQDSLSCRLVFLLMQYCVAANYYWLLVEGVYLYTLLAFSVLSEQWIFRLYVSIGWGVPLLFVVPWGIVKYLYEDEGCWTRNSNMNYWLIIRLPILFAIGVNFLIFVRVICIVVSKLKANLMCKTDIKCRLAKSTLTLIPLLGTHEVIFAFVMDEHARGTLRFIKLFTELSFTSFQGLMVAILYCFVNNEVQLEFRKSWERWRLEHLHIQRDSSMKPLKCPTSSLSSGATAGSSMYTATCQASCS
Assay: qHTS of GLP-1 Receptor Inverse Agonists (Inhibition Mode); also: nearly all actives have a fitted effect of over 55% in size
Details: HEK293 GLP-1R CRE-luciferase, luminescence, 24 h, GLP-1R form is constitutively active; series mostly up to 38.3 µM
Summary of the method: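 Inverse agonists were sought by their lowering of basal cAMP reporter luciferase output in HEK293 cells stably carrying constitutively active human GLP-1R, after 24 h compound treatment.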
Potency is read from the fitted curve at half-maximal effect; tags tell the direction and shape of the fitted curve.

Question: `O=[N+]([O-])c1ccc(Cc2ccccn2)cc1` was tested. Which Potency did it give?
Answer: inactive

Question: How did the Potency turn out when `COC(=O)c1c(C)sc(-c2c(-c3ccc4c(c3)OCCO4)[nH]c3c2c(=O)[nH]c(=O)n3C)c1O` was run?
Answer: inactive

Question: Which Potency does the source give for `CNc1snc(C)c1C(=O)OCC(=O)c1ccc(Cl)cc1` here?
Answer: inconclusive [inhibitor, single point]

Question: `O=C(NCc1ccccc1)NC1CC2CCC(C1)N2Cc1ccco1` (stereo not drawn) was tested. Which Potency did it give?
Answer: inactive

Question: How did the Potency turn out when `O=C1CC(c2ccccc2)Cc2nc3ncnn3cc21` (stereo not drawn) was run?
Answer: inconclusive [inhibitor, partial curve]

Question: How did the Potency turn out when `COc1ccc2nc(C)cc(SCC(=O)NNC(=O)COc3cccc4ccccc34)c2c1` was run?
Answer: inconclusive [inhibitor, partial curve, poor fit]

Question: Which Potency does the source give for `CCc1nnc(NC(=O)CSc2nnc(-c3ccccc3O)n2-c2ccc(C)cc2)s1` here?
Answer: inconclusive [inhibitor, partial curve]

Question: Which Potency does the source give for `CC(C)(C)n1nnnc1C(c1cccs1)N1CCN(C/C=C/c2ccccc2)CC1` (stereo not drawn) here?
Answer: inactive

Question: With `Cc1ccc(-n2cnc3cc(C(=O)NC4CCCCCC4)ccc32)cc1Cl` as the compound, how does the Potency read?
Answer: inconclusive [inhibitor, full curve, poor fit]

Question: With `NS(=O)(=O)c1ccc(CCNCc2ccccc2OCc2ccc(F)cc2)cc1` as the compound, how does the Potency read?
Answer: inconclusive [inhibitor, partial curve, poor fit]

Question: For `COc1cccc(NC(=O)c2cccc(S(=O)(=O)N3CCN(Cc4ccccc4)CC3)c2)c1`, which Potency is on record?
Answer: active: 6.31 µM

Question: `CCN(CC)S(=O)(=O)c1ccc2oc(SCC3CN=C(c4ccc(OC)cc4)S3)nc2c1` (stereo not drawn) was tested. Which Potency did it give?
Answer: inconclusive [inhibitor, partial curve, poor fit]

Question: `CCS(=O)(=O)NCCc1csc2nc(-c3ccc(C)cc3)nn12` was tested. Which Potency did it give?
Answer: inactive

Question: `CCOC(=O)[C@]12CCC=C1N(Cc1ccco1)C(=O)[C@H](CC(=O)NCC13CC4CC(CC(C4)C1)C3)C2` was tested. Which Potency did it give?
Answer: inconclusive [inhibitor, single point]

Question: Which Potency does the source give for `Cc1ccc(-c2cc(C(=O)N3CCC(C)CC3)c3ccccc3n2)cc1` here?
Answer: inconclusive [inhibitor, partial curve, poor fit]

Question: Which Potency does the source give for `COC(=O)[C@]1(Cc2ccccc2)N[C@H](c2ccc(SC3CCCCC3)c(OC)c2)[C@@H]2C(=O)N(C)C(=O)[C@@H]21` here?
Answer: inconclusive [inhibitor, partial curve, poor fit]

Question: For `COc1ccc(/C=C2\Sc3ccc(C(=O)NCCN4CCCCCC4)cc3N(C)C2=O)cc1`, which Potency is on record?
Answer: inconclusive [inhibitor, single point]

Question: `Cc1cc(C)c(-n2[nH]nnc2=S)c(C)c1` was tested. Which Potency did it give?
Answer: inactive

Question: How did the Potency turn out when `COc1cc(NC(=O)c2ccc(Cl)cc2)c(OC)cc1NC(=O)CN1CCCCC1` was run?
Answer: active: 3.55 µM

Question: How did the Potency turn out when `S=C(Nc1ccccc1)Nc1ccc2ccccc2c1` was run?
Answer: inconclusive [inhibitor, single point]

Question: How did the Potency turn out when `O=[N+]([O-])c1ccc(NC(=S)NCc2ccc(F)cc2)cc1` was run?
Answer: inconclusive [inhibitor, full curve, poor fit]

Question: How did the Potency turn out when `O=[N+]([O-])c1cccnc1SCc1c(F)cccc1Cl` was run?
Answer: inconclusive [inhibitor, full curve, poor fit]

Question: How did the Potency turn out when `CCOc1ccc(S(=O)(=O)N(C)c2ccc(OCC(=O)Nc3ccccc3F)cc2)cc1` was run?
Answer: inconclusive [inhibitor, single point]

Question: With `O=C(NCc1ccccc1)c1cccc(NC(=O)c2ccco2)c1` as the compound, how does the Potency read?
Answer: inconclusive [inhibitor, full curve]

Question: For `COc1ccc(OCCNC(=O)C(c2ccccc2)c2ccccc2)cc1`, which Potency is on record?
Answer: inconclusive [inhibitor, partial curve, poor fit]

Question: With `O=C(CSc1ccccc1)NCCCc1ccccc1` as the compound, how does the Potency read?
Answer: inconclusive [inhibitor, single point]

Question: For `Cc1ccc(C)c(NC(=O)Nc2csc3c2CCCC3)c1`, which Potency is on record?
Answer: inactive

Question: Which Potency does the source give for `CCCOc1ccc(CSc2nnc(CCC)n2N)cc1` here?
Answer: inactive

Question: `CCS(=O)(=O)c1nc(S(=O)(=O)c2ccc(C)cc2)c(N2CCCC(C)C2)s1` (stereo not drawn) was tested. Which Potency did it give?
Answer: inconclusive [inhibitor, partial curve, poor fit]

Question: Which Potency does the source give for `COc1cc(C(=O)NCCCNc2nc3c(C)cc(C)cc3cc2C#N)cc(OC)c1OC` here?
Answer: inconclusive [inhibitor, single point]

Question: Which Potency does the source give for `CCOc1ccccc1N1CC(c2nc3ccccc3n2CCCCOc2cc(C)ccc2C)CC1=O` (stereo not drawn) here?
Answer: inactive

Question: For `Cc1ccc(S(=O)(=O)N2C[C@H]3C(=O)C[C@@H](c4ccccc4F)N(S(=O)(=O)c4ccc(C)cc4)[C@H]3C[C@H]2c2ccccc2F)cc1`, which Potency is on record?
Answer: inconclusive [inhibitor, full curve, poor fit]

Question: Which Potency does the source give for `CS(=O)(=O)c1ccc(C(=O)OCc2nnc(-c3ccccc3)o2)cc1[N+](=O)[O-]` here?
Answer: inconclusive [inhibitor, single point]

Question: `Cc1cc(NC(=O)c2ccc([N+](=O)[O-])cc2Cl)ccc1NC(=O)c1ccco1` was tested. Which Potency did it give?
Answer: inactive

Question: For `Nc1nc(NCCOCCO)nc(N2CCCCCC2)c1[N+](=O)[O-]`, which Potency is on record?
Answer: inactive

Question: How did the Potency turn out when `COc1ccc(Cl)cc1NC(=O)C(C)N1CCN(c2ccccn2)CC1` (stereo not drawn) was run?
Answer: inconclusive [inhibitor, partial curve, poor fit]

Question: How did the Potency turn out when `CCCCC(C(=O)OCC(=O)c1ccc(OC)cc1)N1C(=O)c2ccccc2C1=O` (stereo not drawn) was run?
Answer: inconclusive [inhibitor, partial curve]

Question: `CCN(CC)C(=O)c1sc2c(c1C)c(=O)n(CCc1ccccc1)c(=O)n2Cc1cccc(Cl)c1` was tested. Which Potency did it give?
Answer: inconclusive [inhibitor, partial curve, poor fit]

Question: How did the Potency turn out when `Cc1ccc(C(=O)CCC(=O)N2CCN(c3ccccc3O)CC2)cc1` was run?
Answer: inconclusive [inhibitor, single point]

Question: For `COc1ccc(C2=NN(C(=O)CSc3ncccn3)C(c3ccc(OC)cc3)C2)cc1` (stereo not drawn), which Potency is on record?
Answer: inactive

Question: Which Potency does the source give for `COc1ccc(Cc2nnc(NC(=O)Cc3cccs3)s2)cc1OC` here?
Answer: inactive

Question: `Cc1cc2ccccc2nc1Br` was tested. Which Potency did it give?
Answer: inactive

Question: `Oc1cccc(C2c3[nH]c4ccccc4c3CCN2Cc2cnn(-c3ccccc3)c2)c1` (stereo not drawn) was tested. Which Potency did it give?
Answer: inconclusive [inhibitor, partial curve, poor fit]
